# Reference: the supplement of paper PMC8728848
# The other results are listed elsewhere or left out.
# B1: AT5G01260(PC)(40) (Arabidopsis thaliana), Q9LFB0 (protein)
# chain: MIGIGRTLTSSSPSKIILEDLPPGIYRYGTEIFTSVPRKTFHHIKFLRLDSAQSSRILKPVPLRSSSIKDSQVNVEDEEIEASNKTVRVRFQLRKECVFGEHFFIVGDDPVFGGLWDPETALPLNWSDGNVWTVDLDLPVGRLVEFKLLLKAQTGEILWQPGPNRALETWETNKTIRICEDWDNADLQMMIEEDFVPYTNISSIGSEDEDEVLGSVQQNSSVVAVENAGYVSDESAQNSSFSIQSEKTMEPSNGALTAREVIKEAMFTEEESPVLVPGLIPLSDLDNEQVEVINEGKAETFPEVDKKQEPKAERNKKAKVKAISLFEKSEQEAVKSVEQRQYNAVEEEQQRLETEPLGTPDVLFENDIQWGRRTLYKLLSNFRLF
# Tests used:
# Assay in all cases: glycan array binding signal (z-score within array); higher = stronger binding
# Conditions in all cases: glycan notation: IUPAC condensed, linker removed
# [1] = target: Gal3S4S(b1-4)GlcNAc
# Outline: (§1)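 Glycan array data came from 3228 arrays in the Consortium for Functional Glycomics database, and only arrays with an available protein sequence were kept. Glycan names were put into IUPAC-condensed notation, and columns mapping to the same glycan were averaged. The binding signal is a within-array Z-score, averaged across arrays of one protein sequence run at different concentrations or buffers and across linkers. A negative Z-score can be read as non-binding.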
# [2] = target: Gal3S6S(b1-4)GlcNAc
# Outline: as §1
# [3] = target: Gal3S6S(b1-4)GlcNAc6S
# Outline: as §1
# [4] = target: Gal4S(b1-4)GlcNAc
# Outline: as §1
# [5] = target: Gal4S6S(b1-4)GlcNAc
# Outline: as §1
# [6] = target: Gal6P(b1-4)GlcNAc
# Outline: as §1
# [7] = target: Gal6S(b1-3)GlcNAc
# Outline: as §1
# [8] = target: Gal6S(b1-3)GlcNAc6S
# Outline: as §1
# [9] = target: Gal6S(b1-4)Glc
# Outline: as §1
# [10] = target: Gal6S(b1-4)Glc6S
# Outline: as §1
# [11] = target: Gal6S(b1-4)GlcNAc
# Outline: as §1
# [12] = target: Gal6S(b1-4)GlcNAc6S
# Outline: as §1
# [13] = target: GalNAc(a1-3)Gal
# Outline: as §1
# [14] = target: GalNAc(a1-3)GalNAc
# Outline: as §1
# [15] = target: GalNAc(a1-3)GalNAc(b1-3)Gal(a1-4)Gal(b1-4)Glc
# Outline: as §1
# [16] = target: GalNAc(a1-3)GalNAc(b1-3)Gal(a1-4)Gal(b1-4)GlcNAc
# Outline: as §1
# [17] = target: GalNAc(b1-3)Gal
# Outline: as §1
# [18] = target: GalNAc(b1-3)Gal(a1-4)Gal(b1-4)GlcNAc
# Outline: as §1
# [19] = target: GalNAc(b1-3)Gal(a1-4)Gal(b1-4)GlcNAc(b1-3)Gal(b1-4)Glc
# Outline: as §1
# [20] = target: GalNAc(b1-3)Gal(a1-6)Gal(b1-4)Glc
# Outline: as §1
# [21] = target: GalNAc(b1-3)GalNAc
# Outline: as §1
# [22] = target: GalNAc(b1-3)GlcNAc
# Outline: as §1
# [23] = target: GalNAc(b1-4)Gal(b1-4)Glc
# Outline: as §1
# [24] = target: GalNAc(b1-4)GlcNAc
# Outline: as §1
# [25] = target: GalNAc(b1-4)GlcNAc(b1-2)Man
# Outline: as §1
# [26] = target: GalNAc(b1-4)GlcNAc(b1-2)Man(a1-3)[GalNAc(b1-4)GlcNAc(b1-2)Man(a1-6)]Man(b1-4)GlcNAc(b1-4)GlcNAc
# Outline: as §1
# [27] = target: GalNAc(b1-4)GlcNAc(b1-3)GalNAc(b1-4)GlcNAc
# Outline: as §1
# [28] = target: GalNAc(b1-4)GlcNAc6S
# Outline: as §1
# [29] = target: GalNAc(b1-6)GalNAc
# Outline: as §1
# [30] = target: GalNAc3S(b1-4)GlcNAc
# Outline: as §1
# [31] = target: GalNAc3S(b1-4)GlcNAc3S
# Outline: as §1
# [32] = target: GalNAc3S(b1-4)[Fuc(a1-3)]GlcNAc
# Outline: as §1
# [33] = target: GalNAc4S6S(b1-4)GlcNAc
# Outline: as §1
# [34] = target: GalNAc6S(b1-4)GlcNAc
# Outline: as §1
# [35] = target: Glc(a1-4)Glc
# Outline: as §1
# [36] = target: Glc(a1-4)Glc(a1-4)Glc(a1-4)Glc
# Outline: as §1
# [37] = target: Glc(a1-6)Glc(a1-6)Glc
# Outline: as §1
# [38] = target: Glc(a1-6)Glc(a1-6)Glc(a1-6)Glc
# Outline: as §1
binder,measurement,setting,value
B1,glycan array binding signal (z-score),[1],-1.04
same,glycan array binding signal (z-score),[2],0.154
same,glycan array binding signal (z-score),[3],1.1
same,glycan array binding signal (z-score),[4],-0.245
same,glycan array binding signal (z-score),[5],-0.174
same,glycan array binding signal (z-score),[6],0.002
same,glycan array binding signal (z-score),[7],-0.089
same,glycan array binding signal (z-score),[8],-0.529
same,glycan array binding signal (z-score),[9],-0.226
same,glycan array binding signal (z-score),[10],-0.658
same,glycan array binding signal (z-score),[11],-0.814
same,glycan array binding signal (z-score),[12],0.388
same,glycan array binding signal (z-score),[13],0.854
same,glycan array binding signal (z-score),[14],-0.448
same,glycan array binding signal (z-score),[15],-0.513
same,glycan array binding signal (z-score),[16],-0.574
same,glycan array binding signal (z-score),[17],-0.032
same,glycan array binding signal (z-score),[18],2.47
same,glycan array binding signal (z-score),[19],-0.717
same,glycan array binding signal (z-score),[20],-0.39
same,glycan array binding signal (z-score),[21],-0.797
same,glycan array binding signal (z-score),[22],0.162
same,glycan array binding signal (z-score),[23],-0.139
same,glycan array binding signal (z-score),[24],8.76
same,glycan array binding signal (z-score),[25],-0.345
same,glycan array binding signal (z-score),[26],-0.301
same,glycan array binding signal (z-score),[27],-0.883
same,glycan array binding signal (z-score),[28],-0.442
same,glycan array binding signal (z-score),[29],-0.477
same,glycan array binding signal (z-score),[30],0.056
same,glycan array binding signal (z-score),[31],-0.252
same,glycan array binding signal (z-score),[32],-0.85
same,glycan array binding signal (z-score),[33],-0.439
same,glycan array binding signal (z-score),[34],0.189
same,glycan array binding signal (z-score),[35],0.056
same,glycan array binding signal (z-score),[36],-0.311
same,glycan array binding signal (z-score),[37],0.361
same,glycan array binding signal (z-score),[38],-0.339
